Data reported in patent publication US9616120B2, “Monoclonal antibodies directed to CD20” (VET THERAPEUTICS, INC., priority 2010, dated 2017).

Target: T1, recombinant canine CD20 (Canis lupus familiaris, UniProt Q3C2E2, A201T/C77Y/G273E/L198V)
T1 construct: are transfected with an expression vector encoding the full-length canine CD20 protein; expressed in transfected cells; host or cells: CHO cells (CHO-DG44)
T1 sequence (Q3C2E2 1-297 C77Y/L198V/A201T/G273E): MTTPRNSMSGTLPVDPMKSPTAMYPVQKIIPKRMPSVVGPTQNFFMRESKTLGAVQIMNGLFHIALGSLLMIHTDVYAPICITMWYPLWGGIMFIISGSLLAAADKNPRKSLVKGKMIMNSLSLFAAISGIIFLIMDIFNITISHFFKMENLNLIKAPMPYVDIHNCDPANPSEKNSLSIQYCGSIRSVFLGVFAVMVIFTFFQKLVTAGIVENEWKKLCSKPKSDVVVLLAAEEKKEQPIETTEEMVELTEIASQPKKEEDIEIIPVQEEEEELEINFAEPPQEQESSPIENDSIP
Assay: Competition experiments (epitope mapping) on CHO cells expressing recombinant canine CD20
Format: binding
Method: Competition experiments are performed using standard techniques. Briefly, biotinylated recombinant anti-canine CD20 antibodies are titrated on CHO cells expressing recombinant canine CD20. Cells are first incubated with an excess of unlabelled recombinant anti-canine CD20 antibody (25 μg/mL). Thereafter, cells are incubated with a biotin-labeled antibody at 2 μg/mL. After washing, cells are incubated with streptavidin- phycoerythrin and fluorescence is analyzed by flow cytometry. An irrelevant antibody is used as negative control for inhibition. Results are expressed as a ratio between fluorescence intensity of the cells pre-incubated with the unlabelled antibody and the fluorescence intensity obtained for each biotinylated antibody alone. The percentage of inhibition (PI) is calculated by the following formula: PI=[1−(Experimental-Background)/Biotinylated antibody alone−Background)]×100%.

epitope of canine CD20 (in words) (conclusion from Table 7): recognize different epitopes | percentage of inhibition (PI), labeled antibody CD20-1 (unlabelled competitor 25 μg/mL, biotin-labeled CD20-1 2 μg/mL): 111.65% | percentage of inhibition (PI), labeled antibody CD20-2 (unlabelled competitor 25 μg/mL, biotin-labeled CD20-2 2 μg/mL): −22.08% | percentage of inhibition (PI), labeled antibody CD20-5 (unlabelled competitor 25 μg/mL, biotin-labeled CD20-5 2 μg/mL): 87.68%
B1: CD20-1: anti-canine CD20 monoclonal antibody; HC SEQ ID NO. 17, LC SEQ ID NO. 20 (antibody, V domains shown)
VH: EIQLQQSGAELVKPGASVKISCKASGYTFTDYYINWVKQRPGQGLEWIGKIGPGSGRTYYNEKFKGKATLTADKSSSTAYIQISSLTSEDSAVYFCAVLSWGQGTTLTVSS
VL: DVQITQTPLTLSVTFGQPASISCKSSQSLLKSDGRTYLNWLLQRPGQSPKRLLYLVSKLDSGVPDRFTGSGSGTDFTLKISRVEAEDLGVYYCWQGTHFPQTFGGGTKLEIK
modifications: canis familiaris/mus musculus
notes: anti-canine CD20 monoclonal antibody; 20
